# Results as given in paper PMC4336329 (PLoS ONE, 2015).
# In all, about 310,000 compounds went through this assay and about 14,000 (4.5%) showed an effect of 50% or more. Effects have a minus sign here. This is one part of the list.
# Target: human ether-à-go-go-related gene (hERG) potassium channel (human, UniProt Q12809)
# Assay: primary screen, population patch clamp on CHO cells stably expressing hERG
# 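Also: peak tail current of the secondary pulse compared with the same well before compound.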
# human ether-à-go-go-related gene (hERG) potassium channel, sequence (Q12809 whole entry, looked up): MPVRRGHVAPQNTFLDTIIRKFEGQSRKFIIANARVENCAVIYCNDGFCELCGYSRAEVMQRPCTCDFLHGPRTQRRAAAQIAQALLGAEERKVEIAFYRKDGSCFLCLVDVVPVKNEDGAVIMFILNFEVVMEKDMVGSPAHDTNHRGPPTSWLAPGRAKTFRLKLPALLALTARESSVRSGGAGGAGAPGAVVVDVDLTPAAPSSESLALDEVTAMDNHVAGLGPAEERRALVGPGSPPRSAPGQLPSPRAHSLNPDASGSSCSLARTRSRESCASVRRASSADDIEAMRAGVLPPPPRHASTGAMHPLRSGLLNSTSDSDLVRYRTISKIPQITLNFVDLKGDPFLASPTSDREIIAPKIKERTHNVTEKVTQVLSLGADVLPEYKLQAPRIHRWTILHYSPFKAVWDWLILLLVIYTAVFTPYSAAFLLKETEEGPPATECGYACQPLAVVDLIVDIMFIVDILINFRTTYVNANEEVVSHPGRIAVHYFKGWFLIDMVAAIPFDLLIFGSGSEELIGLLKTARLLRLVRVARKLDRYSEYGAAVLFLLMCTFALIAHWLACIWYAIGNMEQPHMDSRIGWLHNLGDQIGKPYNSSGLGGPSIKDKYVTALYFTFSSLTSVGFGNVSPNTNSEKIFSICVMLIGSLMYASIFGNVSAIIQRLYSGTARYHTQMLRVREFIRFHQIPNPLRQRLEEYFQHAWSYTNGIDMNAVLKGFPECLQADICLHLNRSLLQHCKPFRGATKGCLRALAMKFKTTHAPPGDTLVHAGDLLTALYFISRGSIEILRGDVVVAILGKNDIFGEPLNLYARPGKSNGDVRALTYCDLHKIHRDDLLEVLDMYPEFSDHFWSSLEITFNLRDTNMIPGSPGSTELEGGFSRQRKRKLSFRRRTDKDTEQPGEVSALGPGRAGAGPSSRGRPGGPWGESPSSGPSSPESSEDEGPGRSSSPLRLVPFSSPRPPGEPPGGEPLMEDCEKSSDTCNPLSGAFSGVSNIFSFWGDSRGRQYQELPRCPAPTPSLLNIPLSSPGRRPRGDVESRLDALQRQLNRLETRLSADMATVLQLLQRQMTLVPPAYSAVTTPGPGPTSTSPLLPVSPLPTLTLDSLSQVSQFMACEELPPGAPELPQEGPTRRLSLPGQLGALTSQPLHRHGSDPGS
row,Structure (SMILES),"hERG current change (%, negative = inhibition) at 10uM"
1,CCCOc1ccc(N2C(=O)CC(N(Cc3ccccc3)N=O)C2=O)cc1 (stereo not drawn),-8.69%
2,Cc1occc1-c1nnc(SCC(=O)NC(=O)NC(C)C)n1N,11%
3,CCN(CC(=O)Nc1ccc(NC(C)=O)cc1)C(=O)/C=C/c1cn(-c2ccccc2)nc1-c1ccc(F)cc1,5.58%
4,CCC(CC)c1nnc(NS(=O)(=O)Cc2ccccc2)s1,16.9%
5,CCCNS(=O)(=O)c1ccc(CCC(=O)NCc2ccco2)cc1,-10.5%
6,CC1CC(=O)N(CC(=O)NCc2ccc(F)cc2)c2ccccc2S1(=O)=O (stereo not drawn),-1.35%
7,CSc1ccccc1C(=O)NCc1ccccc1,11.1%
8,CCC(C(=O)Nc1ccccc1N1CCCC1)c1ccccc1 (stereo not drawn),-9.92%
9,Cn1cc(SCC(=O)Nc2nccs2)c2ccccc21,7.51%
10,CCCCn1nc2cc(C(=O)NCCc3ccc(C)cc3)ccc2c1OCC,-6%
11,Cc1cc(NC(=O)CSc2nccn2-c2ccc(F)cc2)no1,-2.24%
12,CC(=O)Nc1ccc(C(=O)NC2CCCC2)cc1,3.73%
13,CCCCNC(=O)Nc1nnc(-c2ccc(Cl)cc2)o1,-8.73%
14,COCc1nnc(NC(=O)c2ccc(OC)cc2OC)s1,-2.26%
15,Cl.O=C(c1ccc(Cl)cc1)N1CCN(CCc2ccccn2)CC1,-69%
16,CN1c2ccccc2Oc2nnc(Cl)cc21,-5.87%
17,COc1ccc(C(=O)NNC(=O)C(NC(=O)c2cc(OC)cc(OC)c2)C(C)C)cc1 (stereo not drawn),8.99%
18,CCOC(=O)Nc1nnc(Cc2ccc(Cl)c(Cl)c2)s1,5.09%
19,Cc1ccc(OCC(=O)NCCNC(=O)c2ccco2)cc1C,4.38%
20,COc1ccccc1CN1CC(C(=O)NC2(c3ccccc3)CC2)CCC1=O (stereo not drawn),-9.07%
21,CC1CCCCC1NC(=O)Cn1c(=O)oc2cc(S(=O)(=O)N3CCCC3)ccc21 (stereo not drawn),18.8%
22,O=C(CN1C(=O)COc2ccccc21)NCc1ccc(C(=O)O)cc1,7.27%
23,Cn1cnnc1SCC(=O)Nc1ncc(C(F)(F)F)cc1Cl,21.3%

row,Structure (SMILES),"hERG current change (%, negative = inhibition) at 10uM"
1,O=C(Nc1nncs1)c1ccccc1NS(=O)(=O)c1cccs1,12.9%
2,O=C(COC(=O)/C=C/c1ccc(C(F)(F)F)cc1)NC1CCS(=O)(=O)C1 (stereo not drawn),19.5%
3,O=[N+]([O-])c1ccccc1/C=N/Nc1nnc(-c2ccccc2)c(-c2ccccc2)n1,10.8%
4,Oc1ccc(C23CCCC2C2(CCCC2)c2ccc(O)cc2O3)c(O)c1 (stereo not drawn),-8.11%
5,COc1ccc(N(CC(=O)N2CCC(C)CC2)S(=O)(=O)c2c(C)nn(C)c2C)cc1,-15.9%
6,Cc1nc(SCC(=O)Nc2cc(Cl)ccc2[N+](=O)[O-])nc(C)c1C,13.1%
7,Cc1cc(C)c(C)c(S(=O)(=O)NCCCN2CCCC2=O)c1C,-9.79%
8,CC(=O)O[C@@H]1[C@@]2(C)O[C@H]2CC[C@]23O[C@H]2[C@H](OC3=O)C2=C(C)C(=O)O[C@@]21O,10.1%
9,Cc1cc(C)n(CCN(C)C(=O)CCc2nnc(-c3ccc4c(c3)OCO4)o2)n1,-51.7%
10,CCOc1cc(-c2nc(-c3ccccc3OC)no2)cc(OCC)c1OCC,4.01%
11,O=C(O)Cn1cc(C(=O)c2ccccc2)c2ccccc21,-0.546%
12,COc1ccc(Cc2noc(CN3CCN(Cc4cccc(Cl)c4)CC3)n2)cc1OC,-11.5%
13,NC(=O)c1nsc(C(=O)N(CC(=O)NC2CCCC2)c2cccc(C(F)(F)F)c2)c1N,-14.3%
14,COc1cc(NC2c3ccccc3C(=O)N2Cc2ccc3c(c2)OCO3)cc(OC)c1OC (stereo not drawn),6.14%
15,O=c1oc(CCO)cc2ccc(-c3ccc4[nH]ccc4c3)cc12,14.5%
16,Cc1cc(C)c(C#N)c(SCC(O)CS(=O)(=O)Cc2ccccc2)n1 (stereo not drawn),1.14%
17,C=CCNC(=O)COC(=O)c1oc2ccccc2c1CSC1CCCCC1,-8.69%
18,COCCOC(=O)c1c(C)n(C)c2ccc(OC(=O)c3ccccc3OC)cc12,-16.6%
19,O=C(NCCCn1ccnc1)c1ccc(Cl)s1,5.72%
20,O=C(CN(C(=O)CNC(=O)c1cccs1)c1ccc(F)cc1)NC1CCCCC1,-4%
21,N/C(=N\S(=O)(=O)c1cc(C(F)(F)F)cc(C(F)(F)F)c1)c1ccc(Cl)cc1,-8.21%
22,CC(=O)Nc1ccc(S(=O)(=O)NCCC(=O)OCC(=O)c2ccccc2)cc1,1.66%
23,O/N=C/C1=C(Cl)c2ccccc2CC1,-4.9%

row,Structure (SMILES),"hERG current change (%, negative = inhibition) at 10uM"
1,O=C(CSc1ccc2nnc(-c3cccnc3)n2n1)N1CCOCC1,-25%
2,COc1ccc(S(=O)(=O)Nc2noc3ccccc23)cc1,22.6%
3,NNC(=O)c1csc(Cc2c(Cl)sc3ccc(Cl)cc23)n1,9.6%
4,COc1cccc(/C=N/Nc2ncnc3c2[nH]c2ccc(C)cc23)c1OC,17.8%
5,Cc1ccc2[nH]cc(C(=O)CN3CCN(c4ccccc4F)CC3)c2c1,-2.17%
6,Cc1nn(Cc2ccccc2)c(C)c1CNC(=O)c1ccc(F)c(S(=O)(=O)N2CCOCC2)c1,-28.8%
7,CCN(CC)CCNc1ncnc2c1sc1nc(N3CCCC3)c3c(c12)CC(C)(C)OC3,-65.5%
8,CCOCCCNC(=O)N[C@@H](C)C(=O)OC,-5.77%
9,CC(=O)c1cnc(SCc2ccc(Cl)cc2)nc1C,-0.123%
10,COc1cccc(/C=N/NC(=O)Cn2cnc3c2c(=O)n(C)c(=O)n3C)c1,6.77%
11,CC(C)Nc1nc2nonc2nc1Nc1ccccc1,6.84%
12,Cc1ccc(S(=O)(=O)/N=C(/Nc2c(C)n(C)n(-c3ccccc3)c2=O)c2ccccc2)cc1,-13%
13,CC(C)OCCCNC(=O)C(C)Oc1ccccc1 (stereo not drawn),-0.266%
14,Cc1ccn2cc(CNC(=O)c3ccc(Br)o3)nc2c1,-38.6%
15,COc1cc(-c2[nH]ncc2CN2CCc3sccc3C2)cc(OC)c1OC,-6.38%
16,O=C(CN1CCN(c2ccc(F)cc2)CC1)c1ccc2c(c1)OCO2,-27.1%
17,CSc1c(-c2ccccc2)nc2ccc(Cl)cc2c1C(=O)O,-0.26%
18,CCN(Cc1ccncc1)C(=O)Cc1cccs1,-4.02%
19,Cc1cc(C)cc(NC(=O)C(c2ccccc2)N2CCCC2)c1 (stereo not drawn),12.5%
20,CC(=O)c1ccc(NC(=O)CSc2nnc(-c3ccco3)o2)cc1,-73.9%
21,COc1ccc(/C(C)=N/NC(=O)CNC(=O)c2cccs2)cc1OC,4.52%
22,Cc1c(Cl)cccc1NC(=S)N(CCCN1CCOCC1)Cc1ccco1,-43.9%
23,O=C(CNC(=O)c1ccccc1F)NC1=NCCS1,35.9%

row,Structure (SMILES),"hERG current change (%, negative = inhibition) at 10uM"
1,CCS(=O)(=O)c1ccc2c(c1)NC(=O)C(CCO)O2 (stereo not drawn),3.3%
2,CCCCNC(=O)C1CCCN1S(=O)(=O)c1cccc2nsnc12 (stereo not drawn),-2.84%
3,CCNC(=O)CCSc1nnc(-c2ccco2)o1,5.62%
4,COc1ccc(CO[C@@H]2O[C@H](CO)[C@@H](O)[C@H](O)[C@H]2NC(C)=O)cc1OC,20.3%
5,CCCCCCSc1nc2c(c(=O)[nH]c(=O)n2C)n1C,11.8%
6,CC(C)N(C(=S)Nc1cccnc1)c1ccccc1,3.64%
7,C=CCn1c(SCC(=O)Nc2ccc(O)cc2)nc2sc(CC)cc2c1=O,-62.5%
8,COc1cc2ccccc2cc1C(=O)Nc1ccc2oc(=O)ccc2c1,9.1%
9,CC12CCC(C(=O)N(CC(O)CN3CCCCCC3)C1=O)C2(C)C.Cl (stereo not drawn),3.37%
10,CCOC(=O)C1=C(C)OC(N)=C(C#N)C1c1cc(Cl)c(OCC(N)=O)c(OC)c1 (stereo not drawn),-5.87%
11,Cc1ccc(S(=O)(=O)Nc2nc3cc(C)c(C)cc3[nH]2)cc1,8.98%
12,CCC(OC(=O)CC1Sc2ccccc2NC1=O)C(=O)NCC1CCCO1 (stereo not drawn),-7.94%
13,CCc1nnc(NC(=O)CC23CC4CC(CC(Br)(C4)C2)C3)s1,-1.4%
14,OCCN(Cc1ccccc1)CC1CCCCC1,-2.28%
15,CCC1(CC)NC(=O)N(CC(=O)OCC(=O)Nc2cc(C)ccc2C)C1=O,12.9%
16,CCN(Cc1ccccc1)c1ccc(/C=N/NC(=O)c2cccc(S(=O)(=O)N3CCOCC3)c2)cc1,-5.49%
17,CC(=O)Oc1ccc(/C=C2/C(=O)N(c3ccccc3)N=C2C)cc1,4.53%
18,COCCCNC(=O)c1cn(Cc2c(F)cccc2Cl)nn1,-3.65%
19,CCOc1ncc(S(=O)(=O)N2CCN(CC)CC2)cc1C(=O)O,26.4%
20,CCOc1ccc(NC(=O)Cn2nc(C(N)=O)c3ccccc3c2=O)cc1S(=O)(=O)N1CCCC1,0.537%
21,CCOC(=O)c1ccc2[nH]c(C)c(CCC(C)=O)c(=O)c2c1,10.7%
